This is an account of results in article PMC4336329 (PLoS ONE, 2015).

The whole screen tested about 310,000 compounds, of which about 2,200 (0.71%) showed an effect of 50% or more. Effects have a minus sign here. The list shows a part of the results.

For the assay, the target named is human ether-à-go-go-related gene (hERG) potassium channel (human, UniProt Q12809). Briefly: primary screen, population patch clamp on CHO cells stably expressing hERG.
Sequence of human ether-à-go-go-related gene (hERG) potassium channel (Q12809 whole entry, looked up): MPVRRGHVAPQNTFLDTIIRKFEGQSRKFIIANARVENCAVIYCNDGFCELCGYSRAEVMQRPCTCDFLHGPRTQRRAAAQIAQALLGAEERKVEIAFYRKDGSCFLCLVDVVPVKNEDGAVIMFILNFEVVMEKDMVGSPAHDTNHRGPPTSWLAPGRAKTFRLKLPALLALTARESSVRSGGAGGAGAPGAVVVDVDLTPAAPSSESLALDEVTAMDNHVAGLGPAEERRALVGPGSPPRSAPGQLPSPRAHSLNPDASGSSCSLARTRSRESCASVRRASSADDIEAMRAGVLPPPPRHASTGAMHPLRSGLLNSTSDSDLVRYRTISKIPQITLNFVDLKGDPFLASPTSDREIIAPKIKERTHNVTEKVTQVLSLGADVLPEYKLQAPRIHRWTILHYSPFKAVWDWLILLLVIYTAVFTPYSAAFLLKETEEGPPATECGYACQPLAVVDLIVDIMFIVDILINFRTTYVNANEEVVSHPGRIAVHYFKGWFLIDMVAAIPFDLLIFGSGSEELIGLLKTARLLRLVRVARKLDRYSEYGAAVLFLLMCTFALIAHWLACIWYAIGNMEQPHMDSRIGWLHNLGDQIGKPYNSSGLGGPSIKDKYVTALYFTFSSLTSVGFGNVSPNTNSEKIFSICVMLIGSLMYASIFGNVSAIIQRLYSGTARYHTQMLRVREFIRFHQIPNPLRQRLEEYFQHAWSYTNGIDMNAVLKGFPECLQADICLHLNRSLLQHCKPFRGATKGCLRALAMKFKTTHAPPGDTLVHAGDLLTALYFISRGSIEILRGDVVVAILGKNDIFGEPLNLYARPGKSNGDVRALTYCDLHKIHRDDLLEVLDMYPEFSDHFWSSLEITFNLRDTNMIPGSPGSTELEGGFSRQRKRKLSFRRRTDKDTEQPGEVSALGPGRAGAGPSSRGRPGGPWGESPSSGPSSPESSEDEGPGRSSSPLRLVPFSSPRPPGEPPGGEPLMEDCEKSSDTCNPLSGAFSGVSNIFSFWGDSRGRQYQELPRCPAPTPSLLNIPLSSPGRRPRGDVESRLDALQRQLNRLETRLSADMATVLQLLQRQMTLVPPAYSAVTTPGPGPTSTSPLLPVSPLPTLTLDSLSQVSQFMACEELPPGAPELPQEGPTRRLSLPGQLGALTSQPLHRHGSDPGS
Turning to `Cc1onc(-c2ccccc2)c1C(=O)N/N=C/c1cc2c(cc1Cl)OCO2`, the “hERG current change (%, negative = inhibition) at 1uM” value is reported as 9.88%.
For `COc1cc(C#N)c(N=C(SCC#N)N2CCOCC2)cc1OC`, the “hERG current change (%, negative = inhibition) at 1uM” value was determined as 10.7%.
The same measure for `Clc1ccc(-c2csc(N3CCCCCC3)n2)cc1`: 15.6%; for `COC(=O)N1C(=O)[C@@](Cc2ccccc2)(c2ccccc2)N1C(=O)OC`: 14.6%; for `COc1cc(OC)c2c(C)cc(=O)oc2c1C(CCN1CCOCC1)c1ccc(N(C)C)cc1` (centres unmarked): 9.06%.
As for `COc1ccc(/C(O)=C2/C(=O)C(=O)N(Cc3cccnc3)C2c2ccccn2)cc1` (centres unmarked), the “hERG current change (%, negative = inhibition) at 1uM” value worked out at 9.49%.
The same measure for `CSCCC(NC(=O)COc1ccccc1)C(=O)N1CCN(C(C)=O)CC1` (centres unmarked): 4.74%; for `CC(C(=O)NCC1CCCCC1)N(C)CC(=O)Nc1ccc(N2CCOCC2)cc1` (centres unmarked): 13.7%.
`O=C(OCc1nnc(-c2ccc(Cl)cc2)o1)c1ccc(O)cc1`: the “hERG current change (%, negative = inhibition) at 1uM” value worked out at 17%.
Turning to `CCOC(=O)COc1ccc2c(c1)c(C(C)=O)c(C)n2Cc1ccccc1`, the “hERG current change (%, negative = inhibition) at 1uM” value was found to be 0.0721%.
The same measure for `Cc1ccsc1CNn1cnnc1SCc1ccccc1F`: 8.06%; for `CN(C)CC#CCC(O)(c1ccccc1)C1CCCC1.Cl` (centres unmarked): -2.68%; for `COc1ccc(Cc2nnc(NC(=O)c3cc(OC)c(OC)c(OC)c3)s2)cc1OC`: 3.54%.
Take `COc1ccc(-c2nc(NC(=O)C3CCN(c4nc5ccccc5o4)CC3)sc2C)cc1`: the “hERG current change (%, negative = inhibition) at 1uM” value is 10%.
Take `Cc1ccc(NC(=O)Cn2nc(C)c(S(=O)(=O)N(C)C)c2C)cc1`: the “hERG current change (%, negative = inhibition) at 1uM” value is 9.63%.
The result for `CC1(C)CNC(=O)CC(C)(C)N1O` reads 3.77%.
The result for `O=c1c(Cl)c(N2CCN(c3ccc(F)cc3)CC2)cnn1C12CC3CC(CC(C3)C1)C2` reads 2.19%.
With `c1ccc(CCCNc2ncccn2)cc1`, the “hERG current change (%, negative = inhibition) at 1uM” value is 16.1%.
Consider `CCOc1ccc(CCNC(=O)c2[nH]c(C)c(C(C)=O)c2C)cc1OCC`, for which the “hERG current change (%, negative = inhibition) at 1uM” value was 9.58%.
`Cc1cc(C)cc(NS(=O)(=O)c2ccc(NC(=S)NC(=O)c3cccs3)cc2)c1`: the “hERG current change (%, negative = inhibition) at 1uM” value was determined as 4.56%.
The same measure for `Cc1nn(Cc2c(F)cccc2Cl)c(=O)c2ccccc12`: 14%; for `COc1ccc2c(c1)c(CC[NH3+])c(C)n2Cc1ccccc1.[Cl-]`: 10.4%.
Consider `COc1ccc(N=c2oc3cc(O)ccc3cc2C(=O)Nc2ccccn2)cc1OC`, for which the “hERG current change (%, negative = inhibition) at 1uM” value came to 14.3%.
`O=C(Nc1cc(Cl)ccc1N1CCOCC1)c1cccnc1Cl`: the “hERG current change (%, negative = inhibition) at 1uM” value is reported as -1.16%.
The same measure for `Cc1ccc(C)c(N(C(=O)Cn2nnc3ccccc32)C(C(=O)NC(C)(C)C)c2ccsc2)c1` (centres unmarked): 7.28%; for `Cc1ccc(N(CC(=O)Nc2ccc(S(=O)(=O)N3CCOCC3)cc2)S(C)(=O)=O)cc1C`: 3.47%.
The same measure for `Cc1ccccc1CNC(=O)c1ccc(Cl)c([N+](=O)[O-])c1`: 12.7%; for `O=C(O)COc1ccccc1/C=N/Nc1ccc(S(=O)(=O)Nc2ccc(Cl)cc2)cc1[N+](=O)[O-]`: 16.4%.
With `CC(N)C(=O)c1ccco1.Cl` (centres unmarked), the “hERG current change (%, negative = inhibition) at 1uM” value is given as 8.75%.
The result for `CC(C)OCCCNS(=O)(=O)c1ccc2ccccc2c1` reads -6.06%.
The same measure for `Cc1ccc2nc3n(c(=O)c2c1)CCCCC3`: 5.69%; for `COc1ccccc1Cn1c(=O)c2ccccc2n2c(Sc3ncnc4sccc34)nnc12`: -2.48%; for `CN1CCN(/C=N/c2c(C#N)cnn2Cc2ccccc2)CC1`: 0.374%.
The same measure for `Cc1ccc(S(=O)(=O)CCC(=O)N(CCN2CCOCC2)c2nc3ccccc3s2)cc1.Cl`: 8.14%; for `COc1cc2nc(C3CCC3)n(NC(=O)C3CCC(OC)CC3)c(=O)c2cc1OC` (centres unmarked): -6.57%.
With `COc1ccc(C(Sc2ccccc2)c2ccccc2)cc1OC` (centres unmarked), the “hERG current change (%, negative = inhibition) at 1uM” value is recorded as 10.5%.
The same measure for `CCC(C)(C)NC(=O)CN(C(=O)C(=O)Nc1ccc2c(c1)OCCO2)N1CCOCC1`: 3.1%; for `CC(C)CCNC(=O)C1CC(c2cccc(F)c2)=NO1` (centres unmarked): 8.7%.
The result for `O=c1[nH]c(SCc2ccccc2Cl)nc2c1cnn2-c1ccccc1` reads 12%; that for `O=C(Nc1ccccc1)c1ccc(NCC2CCCO2)c(S(=O)(=O)N2CCOCC2)c1` (centres unmarked), 11.5%.
The result for `Cc1onc(-c2ccccc2Cl)c1C(=O)Nc1nc2ccc(S(C)(=O)=O)cc2s1` reads 13.8%; that for `Cc1cc(C)n(-c2nc(NCCCN(C)C)c3c4c(sc3n2)CCCC4)n1`, -7.25%; that for `COc1cccc(NC(=O)C(Sc2nnnn2C)c2ccccc2)c1` (centres unmarked), 21.7%.
With `CCNC(=O)C1CCCc2c1[nH]c1ccc(Cl)cc21` (centres unmarked), the “hERG current change (%, negative = inhibition) at 1uM” value is on record as 14%.
